According to article PMC5540273 (PLoS ONE, 2017):
This list holds what a sample rich in strong results left over.

These compounds were tested on CDK8. Settings: concentration: 1 μM,replicates: in singlicate; n = 1.
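Further: KINOMEscan kinase panel screen.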

Compound | %Inh [%]
O=C1NC(=O)C(c2ccc(Cl)cc2)=C1Nc1ccccc1 [SB-317661] | 11
O=C1NC(=O)c2c1c(-c1ccccc1)cc1[nH]c3ccc(O)cc3c21 | 2
CS(=O)(=O)c1ccccc1-c1nc(-c2ccc(F)cc2)c(-c2ccncc2)[nH]1 [SB-213663] | 43

The compounds below were run on CDK9. Settings: concentration: 1 μM,replicates: in singlicate; n = 1.

Compound | %Inh [%]
O=C1NC(=O)C(c2ccc(Cl)cc2)=C1Nc1cccc(C(=O)O)c1 [SB-360737] | 0
O=C1NC(=O)C(c2ccccc2Cl)=C1Nc1cccc(C(=O)O)c1 [SB-390526] | 22
O=C1NC(=O)C(c2ccc(Cl)cc2)=C1Nc1ccc(O)c(Cl)c1 [SB-405367] | 0
O=C1NC(=O)C(c2ccc(Cl)cc2)=C1Nc1cccc(O)c1 [SB-333613] | 0
O=C1NC(=O)C(c2ccccc2)=C1Nc1cc(Cl)c(O)c(Cl)c1 [SB-390530] | 0
Cc1ccc(C)c(Oc2nccc(-c3c(-c4ccc(F)cc4)ncn3C3CCNCC3)n2)c1.O=C(O)C(F)(F)F.O=C(O)C(F)(F)F.O=C(O)C(F)(F)F [SB-284852] | 0
Cc1cc(C)cc(Oc2nccc(-c3c(-c4ccc(F)cc4)ncn3C3CCNCC3)n2)c1.O=C(O)C(F)(F)F.O=C(O)C(F)(F)F.O=C(O)C(F)(F)F [SB-284851] | 0
O=C1NC(=O)C(c2ccccc2)=C1Nc1ccc(Cl)c(C(=O)O)c1 [SB-390532] | 0
O=C1NC(=O)C(c2ccccc2Cl)=C1Nc1ccccc1 [SB-376715] | 0
O=C(O)c1ccc(-c2nc(-c3ccc(F)cc3)c(-c3ccncc3)[nH]2)cc1 [SB-202620] | 7
COc1cccc(C2=C(Nc3ccc(SC)cc3)C(=O)NC2=O)c1 [SB-331032] | 0
COc1ccc(C2=C(Nc3cccc(Cl)c3)C(=O)NC2=O)cc1 [SB-326892] | 0
CSc1ccc(NC2=C(c3cccc(Cl)c3)C(=O)NC2=O)cc1 [SB-341528] | 0
O=C1NC(=O)C(c2ccc(Cl)cc2)=C1Nc1ccccc1 [SB-317661] | 0
O=C1NC(=O)c2c1c(-c1ccccc1)cc1[nH]c3ccc(O)cc3c21 | 35
CS(=O)(=O)c1ccccc1-c1nc(-c2ccc(F)cc2)c(-c2ccncc2)[nH]1 [SB-213663] | 2
